# Test results: the supplement of paper PMC11417369
# ± gives the standard deviation of the averaged measurements. The list shows a part of the results.
# Tested on: PfAP2-I AP2 domain 3 (GST-tagged)
# Experiment: gcPBM binding intensity (ln(normalized median fluorescence intensity)); higher = stronger DNA binding
# Outline: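 Binding intensity is the highest Masliner-normalised natural-log median intensity over replicate spots in either probe orientation. To obtain it, GST-tagged P. falciparum DNA-binding domains made in E. coli were incubated for 1 h on an Agilent 4 × 180k array of primer-extended double-stranded 36-bp intergenic genomic probes plus negative controls. Detection used Alexa488 anti-GST antibody with scanning at 488 nm.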
row,Sequence,gcPBM binding intensity (ln)
1,AATGTATTATGTCTTCGTACACATAAATAAATAAAT [XGTACX_site4004],7.79 ± 0.54
2,AACGAACACTATTACACACATACATACATATGTATG [CACACA_site1859],8.05 ± 0.6
3,TTGTTTATTTGTAAAGCTAACAAGAAATGTGAATAT [CACACA_negctrl_site931],7.87 ± 0.6
4,TATACATAAAAATGATGTACATATAATATATATATA [XGTACX_site3863],8.94 ± 0.17
5,TTATTATTATAAAATTGTACTTGGTATATTAACATA [XGTACX_site5829],7.72 ± 0.33
6,TGGATGTTAATATAGTGTACATTTATAAGTCAGTAT [XGTACX_site2949],8.07 ± 0.54
7,GTGGAAAAAAATAATTGTACACAATAATAAATATAT [XGTACX_site2414],8 ± 0.46
8,GTCAAAAGTTTTTAAGGTACACTTATTTTATTATAA [XGTACX_site7004],7.97 ± 0.33
9,ATGTAATATATGCGGAAATATATTCACAAGACGTCA [CACACA_negctrl_site373],7.67 ± 0.66
10,GAAAAAAAATCCAAGATGCACTATTATTACAAAAAT [GTGCAC_site9516],9.45 ± 0.3
11,ACCTTTATTGTATGAACACACATAAGCTGATACATC [CACACA_site4028],8.14 ± 0.55
12,CACTAAACATATACACGTACATGCAACGGATTTTTT [XGTACX_site461],8.06 ± 0.52
13,AATATATGGTTCCTTGATATTAAATTCAATTTAATG [CACACA_negctrl_site71],7.67 ± 0.47
14,TGTGTATATGTGCAAAGTACAAAAAAGAAATTATTT [XGTACX_site7569],8.55 ± 0.42
15,TAGTATTGTAAAAAAAAAAAAGAAAAAAAAAAAAAA [CACACA_negctrl_site977],8.04 ± 0.73
16,TAAATCTATATCATCACACACACATACATAAATATA [CACACA_site6228],7.83 ± 0.54
17,AAAATATATATAACTTGTACATATACATACGTATAT [XGTACX_site4570],7.53 ± 0.45
18,TGTATATATCAATGTACACACATGCGTATGTTCGTT [CACACA_site7654],7.63 ± 0.5
19,TATAAAAAAAATTGCACACATATTATACAGGACGAC [CACACA_site701],8.71 ± 0.81
20,ATCATATGTATGCATACACACAAAAAATTATATATA [CACACA_site398],7.92 ± 0.45
21,TATAATGATATAACAACACACATGTATGTATTATTA [CACACA_site230],7.33 ± 0.4
22,TCTTATATATGCTTAAATATATTATATTTATTTGAA [CACACA_negctrl_site1757],7.54 ± 0.51

row,Sequence,gcPBM binding intensity (ln)
1,TTATTTATGATATATACACACTAACATTATTTATCC [CACACA_site6720],7.75 ± 0.69
2,TTTTTGATGAAATATTATTTTCCTGACTTGGATTAA [CACACA_negctrl_site148],7.44 ± 0.61
3,TGGAGGATAGTTCACAGTACCCAGAAACTCTACGGA [XGTACX_site2560],7.56 ± 0.64
4,AACCATAAATAATTATGTACTAAAAAAAATATATAT [XGTACX_site3415],7.91 ± 0.52
5,ATAATATATTTATGTTGTACAAGGAAAATTTTGAAA [XGTACX_site3472],8.38 ± 0.28
6,GAAATGGAAAAATATACATGCGCATATAAATTAATA [TGCATGCA_site834],7.54 ± 0.59
7,TTAAAATCTTGAAAAGTGCATTATCATTTTGTAACG [GTGCAC_site9447],11.4 ± 0.73
8,TATAATGATGATGATAGTACGTATGAGTTCAAAAAA [XGTACX_site3656],7.99 ± 0.52
9,TATATATTTATATATGCATGTACATTTTTATTTATT [TGCATGCA_site1048],7.92 ± 0.21
10,CTGAATGTATATATTTGTACATATATATATATATAT [XGTACX_site5557],9.55 ± 0.6
11,TTTTTTTTTTTTAATTAACACACATAAATATATATA [CACACA_site9077],8.09 ± 0.79
12,GGGTATAATAAAAGCACACACAAAGATATAAATATA [CACACA_site3308],8.58 ± 0.057
13,AAAAAAAAAAAACACGCATGTACATAAAAATAATCA [TGCATGCA_site142],7.79 ± 0.52
14,ATATAAAACAACGGGTGTACAAAAAAATAAATAATA [XGTACX_site4094],8.22 ± 0.61
15,AAAGAAATGAAATATACACACATACCTATATACATA [CACACA_site7817],7.61 ± 0.5
16,TATAGATACCTATACACACACACACGGACATATATA [CACACA_site7585],7.87 ± 0.44
17,TTTTTCTTCTGCATTATGCACACTATAATTCGTTAA [CACACA_site2837],10.565 ± 0.007
18,TTTTTAATATATAAAGATAATAATAAATAAAATTCA [CACACA_negctrl_site657],7.32 ± 0.45
19,GTAAACAATTATGAACGTACATAAAATAAATGAACA [XGTACX_site7159],7.92 ± 0.59
20,TGTCTTTTTAAGTTTTGTACATAAATATATTTCAAA [XGTACX_site427],7.86 ± 0.52
21,AGTATACACAGACACACACACACATATATATATATA [CACACA_site8510],9.54 ± 0.52
22,TAATATTATATAAATTGTACTATTTTTTCCTTATTC [XGTACX_site5314],7.62 ± 0.51
